38 compounds from the supplement of paper PMC11348887 can be followed below.

Structures can show the parent of a compound that is named as a salt. The list shows a part of the results. No stated cut-off is given here; in the data, active = -2 or less and inactive = the rest. Most values come without repeats; read them as rough.
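Further: nuclei counted from DAPI counterstain by automated high-content image analysis, four fields per well at ×20 in 384-well plates, with sequential b-score then z-score normalization.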

The subject of the assay is hPSC-derived cortical neurons (WA09). Kind of assay: nuclei number (viability) z-score; higher = more surviving cells. Particulars: 5 µM; treatment: days 7-14 after plating, readout day 21.
Regarding `Cc1c(OCC(F)(F)F)ccnc1C[S@@+]([O-])c1nc2ccccc2[nH]1` [Dexlansoprazole], the “nuclei number (z-score)” value was inactive: 0.126.

On to `CC[C@H]1OC(=O)[C@H](C)[C@@H](O[C@H]2C[C@@](C)(OC)[C@@H](O)[C@H](C)O2)[C@H](C)[C@@H](O[C@@H]2O[C@H](C)C[C@H](N(C)C)[C@H]2O)[C@](C)(O)C[C@@H](C)C(=O)[C@H](C)[C@H]2OC(=O)O[C@@]21C` [Erythromycin Cyclocarbonate], for which the “nuclei number (z-score)” value was inactive: 2.69.

As for `C[C@H]1O[C@@H](O[C@H]2[C@@H](O)C[C@H](O[C@H]3[C@@H](O)C[C@H](O[C@H]4CC[C@@]5(C)[C@H](CC[C@@H]6[C@@H]5C[C@@H](O)[C@]5(C)[C@@H](C7=CC(=O)OC7)CC[C@]65O)C4)O[C@@H]3C)O[C@@H]2C)C[C@H](O)[C@@H]1O` [Digoxin], the “nuclei number (z-score)” value was active: -4.17.

With `O=C(Nc1cccc(C(F)(F)F)c1)Nc1cc(S(=O)(=O)NC2CC2)ccc1-c1ccsc1`, the “nuclei number (z-score)” value is inactive: 0.948.

For the compound `O=C1c2c(O)cccc2C([C@@H]2O[C@H](CO)[C@@H](O)[C@H](O)[C@H]2O)c2cc(CO)cc(O)c21` (stereo partly drawn) [Aloin], the “nuclei number (z-score)” value was inactive: -0.244.

In the case of `CC(NC(=O)C(Cc1ccccc1)NC(=O)OCc1ccccc1)C(=O)CF` (stereo not drawn), the “nuclei number (z-score)” value is inactive: 1.27.

Turning to `C=CCc1cccc(/C=N/NC(=O)CN2CCN(Cc3ccccc3)CC2)c1O`, the “nuclei number (z-score)” value is active: -5.45.

Turning to `CO/N=C(\C(=O)N[C@@H]1C(=O)N2C(C(=O)O)=C(CSc3nnnn3C)CS[C@H]12)c1csc(N)n1` [Cefmenoxime hydrochloride], the “nuclei number (z-score)” value is inactive: 1.23.

Take `CC(C(=O)O)c1ccc2c(c1)[nH]c1ccc(Cl)cc12` (stereo not drawn) [Carprofen]: the “nuclei number (z-score)” value was inactive: 0.355.

In the case of `CN(C)C(=O)C(CCN1CCC(O)(c2ccc(Cl)cc2)CC1)(c1ccccc1)c1ccccc1` [Loperamide HCl], the “nuclei number (z-score)” value was inactive: -0.402.

With `CC(=O)C1C(=O)C=C(C)OC1=O` (stereo not drawn) [Dehydroacetic acid], the “nuclei number (z-score)” value is inactive: -0.182.

Regarding `Cc1ccccc1C(=O)Nc1ccc(C(=O)N2CCCC(O)c3cc(Cl)ccc32)c(C)c1` (stereo not drawn) [Tolvaptan], the “nuclei number (z-score)” value is inactive: 7.23.

As to `Nc1nc(-c2nn(Cc3ccccc3F)c3ncccc23)ncc1C1CC1`, the “nuclei number (z-score)” value was inactive: 0.502.

Take `CC1(C)O[C@H]2CC(=O)OC[C@]23[C@H]2CC[C@@]4(C)[C@H](c5ccoc5)OC(=O)[C@H]5O[C@]54[C@]2(C)C(=O)C[C@@H]13` [Limonin]: the “nuclei number (z-score)” value was inactive: 3.17.

`CN[C@@H]1[C@@H](O[C@H]2O[C@H](CO)[C@@H](N)[C@H](O)[C@H]2O)OC2C[C@@H](N)[C@@H](O[C@H]3[C@H](O)[C@@H](O)[C@H](N)C[C@@H]3N)OC2[C@@H]1O` (stereo partly drawn) [Apramycin Sulfate]: the “nuclei number (z-score)” value was inactive: -0.748.

As to `CC12CCC(CC1=O)C2(C)C` (stereo not drawn) [(+)-Camphor], the “nuclei number (z-score)” value was inactive: 0.367.

Turning to `C[C@@H]1NC(=O)[C@@H](N)CNC(=O)[C@H](C2CCNC(=N)N2)NC(=O)/C(=C/NC(N)=O)NC(=O)[C@H](CNC(=O)CC(N)CCCN)NC1=O.N=C1NCC[C@H]([C@@H]2NC(=O)/C(=C/NC(N)=O)NC(=O)[C@H](CNC(=O)C[C@@H](N)CCCN)NC(=O)[C@H](CO)NC(=O)[C@@H](N)CNC2=O)N1` [Capreomycin Sulfate], the “nuclei number (z-score)” value is inactive: -0.238.

As for `CC/C(=C(\c1ccc(O)cc1)c1ccc(OCCN(C)C)cc1)c1ccccc1` [4-Hydroxytamoxifen], the “nuclei number (z-score)” value is inactive: -1.99.

On to `CCN(CC)CCOC(=O)c1ccc(N)cc1Cl` [Chloroprocaine HCl], for which the “nuclei number (z-score)” value is inactive: 2.9.

Turning to `COc1ccc(O)cc1` [Mequinol], the “nuclei number (z-score)” value was inactive: 0.947.

`CCCCCCOC(=O)NC(=N)c1ccc(NCc2nc3cc(C(=O)N(CCC(=O)OCC)c4ccccn4)ccc3n2C)cc1` [Dabigatran Etexilate]: the “nuclei number (z-score)” value is inactive: 0.635.

Regarding `Cc1c(-c2ccccc2)oc2c(C(=O)OCCN3CCCCC3)cccc2c1=O` [Flavoxate HCl], the “nuclei number (z-score)” value was inactive: -0.417.

In the case of `CC[C@@](C)(Nc1ccnc(-c2c[nH]c3ncccc23)n1)C(=O)NCC(F)(F)F` [Decernotinib (VX-509)], the “nuclei number (z-score)” value was inactive: 0.987.

For `NC(=O)c1cnc(N[C@@H]2CCCC[C@@H]2N)nc1Nc1cccc(-n2nccn2)c1`, the “nuclei number (z-score)” value is inactive: 0.206.

Regarding `CN[C@@H]1[C@H](O)[C@H](NC)[C@H]2O[C@@]3(O)C(=O)C[C@@H](C)O[C@H]3O[C@@H]2[C@H]1O` [Spectinomycin HCl], the “nuclei number (z-score)” value is inactive: 0.139.

On to `O=C(/C=C/c1cncc(F)c1)c1c(-c2ccccc2)c2cc(Cl)ccc2[nH]c1=O`, for which the “nuclei number (z-score)” value was active: -6.65.

For `NS(=O)(=O)c1cc2c(cc1Cl)NC(C(Cl)Cl)NS2(=O)=O` (stereo not drawn) [Trichlormethiazide], the “nuclei number (z-score)” value was inactive: 0.073.

As for `COC(=O)C1=CO[C@@H](O[C@@H]2O[C@H](CO)[C@@H](O)[C@H](O)[C@H]2O)[C@@H]2C(CO)=CC[C@H]12` [Geniposide], the “nuclei number (z-score)” value is inactive: -1.11.

Turning to `C#Cc1cccc(Nc2ncnc3cc(OCCOC)c(OCCOC)cc23)c1` [Erlotinib], the “nuclei number (z-score)” value is inactive: 0.824.

Regarding `C#Cc1cccc(Nc2ncnc3cc(OCCOC)c(OCCOC)cc23)c1` [Erlotinib HCl (OSI-744)], the “nuclei number (z-score)” value is inactive: 0.687.

As to `COc1ccc(Cn2ccc3ccc(C(=O)NO)cc32)cc1`, the “nuclei number (z-score)” value was inactive: 0.0273.

In the case of `CC#CC(=O)N1CC[C@@H](n2c(=O)n(-c3ccc(Oc4ccccc4)cc3)c3c(N)ncnc32)C1`, the “nuclei number (z-score)” value is inactive: -0.443.

As to `Cc1onc(-c2ccccc2Cl)c1C(=O)N[C@@H]1C(=O)N2[C@@H]1SC(C)(C)[C@@H]2C(=O)O` [Cloxacillin Sodium], the “nuclei number (z-score)” value is inactive: -0.705.

As for `CN1CCC[C@@H]1Cc1c[nH]c2ccc(CCS(=O)(=O)c3ccccc3)cc12` [Eletriptan HBr], the “nuclei number (z-score)” value was inactive: -1.19.

Turning to `COc1cc2c(Oc3ccc(NC(=O)C4(C(=O)Nc5ccc(F)cc5)CC4)cc3F)ccnc2cc1OCCCN1CCOCC1`, the “nuclei number (z-score)” value was active: -2.72.

Consider `C[S+]([O-])c1ccc(-c2nc(-c3ccc(F)cc3)c(-c3ccncc3)[nH]2)cc1` (stereo not drawn), for which the “nuclei number (z-score)” value is inactive: -0.0734.

On to `COc1ccccc1Oc1c(NS(=O)(=O)c2ccc(C(C)(C)C)cc2)nc(-c2ncccn2)nc1OCCO` [Bosentan], for which the “nuclei number (z-score)” value was inactive: -0.0096.

As to `COc1ccccc1Oc1c(NS(=O)(=O)c2ccc(C(C)(C)C)cc2)nc(-c2ncccn2)nc1OCCO` [Bosentan Hydrate], the “nuclei number (z-score)” value is inactive: 1.44.
